In patent publication US20240043495A1, “DSG2 COMPOSITIONS AND METHODS FOR THE TREATMENT OF COVID-19” (priority 2020, published 2024):
“Also recorded” adds a separate entry of the source.

Experiments:
[1] = test system: anti-DSG2 antibodies in sera of post-COVID-19 patients; assay: Electrochemical immunoassay: blocking of post-COVID-19 patient sera binding to the DSG2 extracellular domain; set-up: species or system human; settings: fusion polypeptide 10 μg/mL; post-COVID-19 patient sera 10% (v/v); FIG. 3
[2] = Dynamic light scattering (DLS) of DSG2 fusion polypeptides; assay type: physicochemical
Text: 6 candidates were compared to the reference sample.

[3] = Melting temperature Tm of DSG2 fusion polypeptides; assay type: physicochemical
Text: As the temperature increased, the aggregates began to move, unfold and spread apart.

anti-DSG2 antibody = assay: Anti-DSG2 antibody Meso Scale Discovery (MSD) blocking assay, anti-DSG2 antibody controls; assay type: binding; settings: for % inhibition: fraction C
Procedure: (§1) The DSG2 fusion polypeptides were tested for the ability to block anti-DSG2 antibody by an anti-DSG2 antibody Meso Scale Discovery (MSD) assay. […] The DSG2 fusion polypeptides were subjected to size exclusion chromatography and different elution fractions were examined. […] As shown in Table 9 and FIG. 4B, FIG. 4C, and FIG. 4D, enriching for fraction C improved the ability of the DSG2 fusion polypeptides to block ARVC patient serum.

[4] = test system: ARVC serum (serum obtained from ARVC patients); assay: Anti-DSG2 antibody Meso Scale Discovery (MSD) blocking assay, ARVC serum; assay type: binding, human; settings: for % inhibition: fraction C
Procedure: as §1

[5] = test system: human iPSC cardiomyocytes; assay: CiPA multielectrode array (MEA) assay, cardiomyocyte sodium spike; assay type: cell-based; settings: 1.1 μg/mL DSG2FP #1; anti-DSG2 antibodies 0.5 μg/mL; FIG. 5A
Procedure: To determine the effect of anti-DSG2 antibodies in cardiomyocytes, the cardiac in vitro proarrhythmia (CiPA) assay was performed (Sager et al. Am Heart J 2014; 167:292-300; the contents of which are herein incorporated by reference in its entirety). CiPA is envisioned to consist of four components: (1) an evaluation of the effects of test agents on cardiac ion channel assays; (2) in silico modeling of the cardiac action potential based on the ion channel results to integrate the data with cardiac function; (3) experimental measurement of test agent effects in human ventricular myocytes to confirm the modeling result; and (4) scoring the results. […] The sodium spike quantified below is a measurement of the specific sodium channel current in the cardiomyocyte and is also described in Blinova K, et al. Cell Rep. […] The parameters evaluated include measuring a change in the spike in the component of electrical signal propagation (e.g. sodium spike) and cell index—a function of cell impedance and cell number. […]
Commercially available anti-DSG2 antibodies were tested in the cardiomyocyte CiPA assay. […] The voltage (μV) is measured at time intervals of 0, 1 hour, 12 hours, 24 hours, 48 hours, 72 hours, and 96 hours. […]

[6] = test system: human iPSC cardiomyocytes; assay: iPSC-derived cardiomyocyte MEA assay, cell index; assay type: cell-based; settings: addition of DSG2FP #1; FIG. 6
[7] = test system: anti-DSG2 antibodies in ARVC patient serum samples with strong clinical data; assay: Anti-DSG2 antibody MSD-based detection assay on ARVC patient serum, blocked by competing DSG2 polypeptide; assay type: binding, human; settings: competing DSG2 polypeptide added
[8] = test system: anti-DSG2 antibodies in sera of ARVC patients; assay: Electrochemical immunoassay: blocking of ARVC patient sera binding to the DSG2 extracellular domain; set-up: species or system human; settings: fusion polypeptide 5 μg/mL; ARVC patient sera 10% (v/v); FIG. 8

B1: DSG2FP#1 (protein)
chain: AWITAPVALREGEDLSKKNPIAKIHSDLAEERGLKITYKYTGKGITEPPFGIFVFNKDTGELNVTSILDREETPFFLLTGYALDARGNNVEKPLELRIKVLDINDNEPVFTQDVFVGSVEELSAAHTLVMKINATDADEPNTLNSKISYRIVSLEPAYPPVFYLNKDTGEIYTTSVTLDREEHSSYTLTVEARDGNGEVTDKPVKQAQVQIRILDVNDNIPVVENKVLEGMVEENQVNVEVTRIKVFDADEIGSDNWLANFTFASGNEGGYFHIETDAQTNEGIVTLIKEVDYEEMKNLDFSVIVANKAAFHKSIRSKYKPTPIPIKVKVKNVKEGIHFKSSVISIYVSESMDRSSKGQIIGNFQAFDEDTGLPAHARYVKLEDRDNWISVDSVTSEIKLAKLPDFESRYVQNGTYTVKIVAISEDYPRKTITGTVLINVEDINDNCPTLIEPVQTICHDAEYVNVTAEDLDGHPNSGPFSFSVIDKPPGMAEKWKIARQESTSVLLQQSEKKLGRSEIQFLISDNQGFSCPEKQVLTLTVCEVLHGSGCREAQHDSYVGIEGRM[sequence of human IgG1 Fc omitted]
[1]
  blocking activity (in words): best blocking activity
[2]
  Peak 1 mass %: ~97%
  Peak 1 mode diameter: 18.13 nm
[2]; polymer distribution index
  PDI: 0.33
[3]
  Tm1: 49.9 °C
  Tm2: 64.1 °C
  Tm3: 77.5 °C
anti-DSG2 antibody; MSD assay
  ability to bind to and block anti-DSG2 antibody: able to bind and block anti-DSG2 antibody
anti-DSG2 antibody; sample: Anti-DSG2 antibody (200 ng/mL) control
  % inhibition: 63.8%
anti-DSG2 antibody; sample: Anti-DSG2 antibody (1000 ng/mL) control
  % inhibition: 88.4%
anti-DSG2 antibody; sample: no antibody control
  % inhibition: 4.8%
[4]; MSD assay, FIG. 4A
  ability to bind and block serum obtained from ARVC patients: able to bind and block
[4]; sample: ARVC serum 1
  % inhibition: 96.7%
[4]; sample: ARVC serum 2
  % inhibition: 82.9%
[4]; sample: ARVC serum 3
  % inhibition: 95.8%
[4]; sample: ARVC serum 4
  % inhibition: 95.7%
[4]; sample: ARVC serum 5
  % inhibition: 93.1%
[5]
  rescue of the effect of anti-DSG2 antibodies on cardiomyocyte sodium spike: rescued; also recorded: completely blocks the effect of the anti-DSG2 antibodies on the sodium spike
[6]
  reversal of effects of anti-DSG2 antibodies on cell index: reversed; also recorded: completely blocks the effect of the anti-DSG2 antibodies
[7]
  blocking of assay signal from ARVC patient serum samples: blocked
[8]
  blocking activity (in words): best blocking activity
